Data on 88 molecules can be found in ChEMBL document CHEMBL1157539, “Thousands of chemical starting points for antimalarial lead identification” (Nature, 2010).

Molecules are shown by their SMILES. The full ranking holds about 13,000 compounds; the median of “IFI” is about 4, and the highest 2% start at about 17. The list shows a part of the results.

This assay can be described thus: GSK_TCMDC: Inhibition Frequency Index (IFI). The number of non-kinase HTS assays where a compound showed > 50 % inhibition, expressed as a percentage of the number of such assays in which the compound was tested (-0 is zero). It is filed as functional.
Turning to `O=C(Nc1ccc(Br)c(C(F)(F)F)c1)c1cccc([N+](=O)[O-])c1`, the IFI is 3.45%.

Molecule `O=C(/C=C/c1ccc(Cl)c(Cl)c1)NCCCCCN1CC[C@H](NC(=O)c2sc3ccccc3c2Cl)C1` displayed an IFI of 6.77%.

Regarding `O=C(Cc1cccc(O)c1)NCC(Cc1ccc(O)cc1)c1ccccc1` (stereo not drawn), the IFI was found to be 0%.

On to `N#CCCN1CCN(Cc2ccc(-c3cccc(-c4nc5cc(F)ccc5[nH]4)c3)cc2)CC1`, for which the IFI was determined as 4.23%.

Turning to `COc1cc(Cc2cnc(N)nc2N)ccc1OCc1csc(-c2ccc(Cl)cc2)n1`, the IFI turned out to be 12%.

Turning to `O=C(/C=C/c1ccc(Cl)c(Cl)c1)N1CCC(CCN2CCc3[nH]c4ccccc4c3C2)CC1`, the IFI came to 10.7%.

Molecule `C=CCn1c(Sc2ccc(C#N)c([N+](=O)[O-])c2)nnc1-c1cc(OC)cc(OC)c1` registered an IFI of 2.14%.

In turn, `CCOc1ccccc1NC(=O)Nc1ccc2c(c1)CCN(C1CCC1)CC2` returned an IFI of 0.74%.

For the molecule `COc1ccc(C(C(=O)NC2CCN(C[C@H](O)c3ccnc4ccc(OC)cc34)CC2)N2CCN(c3ccc(Cl)c(Cl)c3)CC2)cc1` (stereo partly drawn), the IFI is 2.22%.

In turn, `COc1ccc2nc(C)cc(N/N=C/C=C/c3ccccc3)c2c1` came in with an IFI of 2.22%.

In turn, `Cc1cc(N/N=C/c2cccc([N+](=O)[O-])c2)c2ccc(C(F)(F)F)cc2n1` showed an IFI of 0.91%.

Regarding `COc1ccc(CNC(=O)c2cnc3c(O)cccc3c2Nc2cccc(NC(=O)c3ccc(Cl)c(Cl)c3)c2)cc1`, the IFI came to 7.81%.

On to `COc1ccc2nccc([C@@H](O)CN3CCC(NCc4ccc5c(c4)NC(=O)C(C)(C)O5)CC3)c2c1`, for which the IFI amounted to 0.73%.

`Cn1c(NC(=O)C2CCC(CNC(=O)c3ccc(O)c(-c4cccc([N+](=O)[O-])c4)c3)CC2)nc2ccccc21` (stereo not drawn) had an IFI of 1.48%.

As to `CCOC(=O)c1ccc(N(CCCN(CCCN(c2ccc(C(=O)OCC)cc2)S(=O)(=O)c2ccc(C)cc2)CCc2ccc(O)cc2)S(=O)(=O)c2ccc(C)cc2)cc1`, the IFI was determined as 3.68%.

Turning to `CCCCCCCc1c(C)nc2ccccc2c1O`, the IFI amounted to 2.22%.

On to `CC(C)C1C(=O)N(S(C)(=O)=O)C2CCN(C(=O)c3ccc(CN4CCCCC4)c([N+](=O)[O-])c3)C12` (stereo not drawn), for which the IFI worked out at 0.75%.

`Cc1cccc2nc(-c3ccc(-c4ccc(CN5CCC(N)C5)cc4)s3)[nH]c12` (stereo not drawn) gave an IFI of 2.78%.

The molecule `CN(C)Cc1ccc2cc(NC(=O)c3ccc(-c4ccc(Cl)cc4)cc3)ccc2n1` returned an IFI of 11.5%.

`Fc1ccc(-c2cc(NCCCn3ccnc3)nc(-c3cccnc3)n2)cc1` gave an IFI of 2.78%.

Take `CC(C)Oc1cc2c(cc1NS(=O)(=O)c1ccc(-c3ccc(Cl)s3)cc1F)CCN(C)CC2`: the IFI worked out at 11.1%.

In turn, `O=C(Nc1ccc(-c2cccc(-c3nc4cc(F)ccc4[nH]3)c2)cc1)Nc1ccsc1` gave an IFI of 6%.

For `CCc1cc(NC(=O)Nc2ccnc3ccccc23)ccc1OC`, the IFI was found to be 4.55%.

`O=C(NCCCCNCC(Cc1cccc(O)c1)c1ccccc1)c1ccc(NC(=O)c2ccc(Cl)cc2)cc1` (stereo not drawn) displayed an IFI of 0%.

The molecule `O=C(Nc1ccc(OC2CCN(Cc3ccc(F)cc3)C2)c(Cl)c1)c1cccs1` (stereo not drawn) registered an IFI of 4.48%.

For `COc1ccc(-c2nc(NC(=O)CS(=O)(=O)c3ccc(C)cc3)sc2C)cc1`, the IFI was determined as 4.48%.

`O=C(/C=C/c1ccc(Cl)c(Cl)c1)NCCCCCN1CCN(C(=O)Nc2cccc(F)c2)CC1` displayed an IFI of 0.68%.

Molecule `Nc1nc(Nc2ccc(Cl)cc2)nc2ccccc12` displayed an IFI of 5.31%.

As to `CCOc1cc(C(=O)Nc2ccc3nc(N4CCN(C)CC4)cc(C)c3c2)cc(OCC)c1OCC`, the IFI is 2.82%.

The molecule `COc1ccc2nccc([C@@H](O)CN3CCC(NCCOc4cc(F)cc(F)c4)CC3)c2c1` yielded an IFI of 0.7%.

Regarding `O=C(COc1ccccc1Cl)N1CCc2cc3nccc(N4CCN5CCC[C@H]5C4)c3cc21`, the IFI stood at 1.49%.

Molecule `CC(C)CC(=O)N1CCNC[C@@H]1C(=O)NCc1ccc(Cl)c(Cl)c1` came in with an IFI of -0%.

Turning to `COCCOCCOCCn1ccc2c3c(N)nc(N)nc3ccc21`, the IFI came out at 2.54%.

With `COc1ccc(CCN(C)CCCN2CCC(NC(=O)c3cccc4c(=O)c5ccccc5[nH]c34)CC2)cc1OC`, the IFI came to 5.76%.

For the molecule `Cc1ccc(-c2nc3cc(C(=O)NC4CCN(Cc5ccccc5)CC4)ccc3[nH]2)cc1`, the IFI stood at 3%.

The molecule `CCN1CCCC1CN(Cc1ccc(-c2ccc(C(F)(F)F)cc2)cc1)C(=O)Cn1c(CCc2cccc(F)c2F)nc(=O)c2ccccc21` (stereo not drawn) returned an IFI of 4.65%.

Take `COc1ccc(CN2CCC(N3CCc4cc(NC(=O)c5cc(C)on5)ccc43)C2)cc1Cl` (stereo not drawn): the IFI came out at 0%.

`O=C(/C=C/c1ccc(Cl)c(Cl)c1)NCCCCCN1CC[C@H](NC(=O)Nc2ccc(Oc3ccccc3)cc2)C1` registered an IFI of 7.8%.

On to `COc1ccc(-c2ccc(NC(=O)c3cccc(Cl)c3)cc2)cc1CN(C)CCN(C)C`, for which the IFI stood at 3.95%.

Turning to `CC(C)(C)c1cc(CN2CCN(Cc3ccccc3)CC2)cc(C(C)(C)C)c1O`, the IFI came to 0.72%.

Consider `NS(=O)(=O)c1cccc(-c2ccc3nccc(-c4cccc(S(N)(=O)=O)c4)c3c2)c1`, for which the IFI was -0%.

On to `CN1CCC(NCc2ccc(-c3ccc(S(=O)(=O)NC4CCC4)s3)cc2)CC1`, for which the IFI was 3.96%.

As to `CN(c1ccc(NC(=O)Nc2cc(C(F)(F)F)ccc2F)cc1)c1ccnc(NCCN2CCOCC2)n1`, the IFI stood at 12.9%.

With `c1ccc2c(NCCOCCNc3c4ccccc4nc4ccccc34)c3ccccc3nc2c1`, the IFI is -0%.

On to `O=C(Nc1cccc(-c2nn3ncccc3c2-c2ccnc(Nc3ccccc3)n2)c1)c1c(F)cccc1F`, for which the IFI came out at 5.84%.

With `c1cncc(CCNCc2ccc(-c3cccc(-c4nc5ccccc5[nH]4)c3)cc2)c1`, the IFI came to 4.81%.

Molecule `Clc1ccc2c(Cl)c(CNCCCNc3nc4ccccc4[nH]3)[nH]c2c1` showed an IFI of 7.52%.

`O=C(/C=C/c1ccc(Cl)c(Cl)c1)NCCCCCN1CCC(NC(=S)Nc2ccc(Cl)cc2)CC1`: the IFI is 11.7%.

As to `CC(Oc1ccc(Cl)cc1Cl)c1nc(-c2ccc(NC(=O)c3ccco3)cc2)no1` (stereo not drawn), the IFI stood at 0.91%.

In the case of `FC(F)(F)c1cc(Nc2ccc(Oc3ccccc3)cc2)c2cc(-c3ccncc3)ccc2n1`, the IFI is 2.13%.

`CC(C)(C)c1ccc(O)c(CNC2CCCCC2)c1`: the IFI was determined as 1.52%.

Consider `Cc1[nH]c(C)c(-c2ccc(OCc3ccc(OC(F)(F)F)cc3)nc2)c(=O)c1Br`, for which the IFI was 2.73%.

The molecule `COc1ccc(C(C(=O)NC2CCN(C[C@H](O)c3ccnc4ccc(OC)cc34)CC2)N2CCc3ccccc3C2)cc1` (stereo partly drawn) came in with an IFI of 0%.

For `COc1cccc(-c2nn(C)c3sc(C(=O)NCCN4CCN(c5ccccc5F)CC4)cc23)c1`, the IFI is 2.84%.

`Oc1cc(Nc2ccnc3ccc(I)cc23)c(F)cc1Cl` showed an IFI of 5.97%.

As for `CN1Cc2ccc(NS(=O)(=O)c3ccc(-c4ccoc4)cc3)cc2C1`, the IFI stood at 2.16%.

As for `Cc1cccc2nc(-c3cccc(-c4ccc(CNCCc5ccncc5)cc4)c3)[nH]c12`, the IFI came to 6.93%.

Take `CNCCNCc1cccc(-c2cccc(-c3nc4cc(C(F)(F)F)ccc4[nH]3)c2)c1`: the IFI came to 5.88%.

`O=S(=O)(NCCN1CCCC1)c1ccc(-c2ccccc2CNC2Cc3ccccc3C2)cc1` displayed an IFI of 4.76%.

In turn, `Cc1cc(F)ccc1-c1nc(NCCCN2CCCC2=O)nc2c1ccc(=O)n2-c1c(F)cccc1F` gave an IFI of 3.1%.

For `Cc1ccc2[nH]ncc2c1N(CC1CCCCC1)c1ccnc(Nc2ccc(OCC(O)CN3CC=CCC3)cc2)n1` (stereo not drawn), the IFI was 12.6%.

In the case of `Clc1ncnc2ncn(Cc3cccc(Br)c3)c12`, the IFI worked out at 2.92%.

Molecule `COc1ccccc1N1CCN(Cc2c(O)ccc3cc(Br)ccc23)CC1` displayed an IFI of 3.88%.

Regarding `O[C@H]1[C@H](OCc2ccc(-c3ccccc3)cc2)CC[C@@H]1N1CCCCC1`, the IFI was found to be 0%.

In the case of `Cc1cc2nc(-c3ccc(OCC(=O)NCc4cccc(C(F)(F)F)c4)cc3)[nH]c2cc1C`, the IFI came to 1.52%.

In turn, `Cc1ccc(C(=O)Nc2cccc(CN3CCCN(Cc4ccc(O)cc4)CC3)c2)cc1` yielded an IFI of -0%.

On to `OC(c1nnc(S)n1-c1ccccc1)C(O)c1nnc(S)n1-c1ccccc1` (stereo not drawn), for which the IFI was found to be 4.29%.

For the molecule `O=C(/C=C/c1cccc2ccccc12)NCCCCCN1CCC(c2c[nH]c3ccccc23)CC1`, the IFI was 4.86%.

Turning to `COc1c(C2CCN(CCCCNC(=O)c3ccc(-c4ccc(C(=O)C(F)(F)F)cc4)cc3)CC2)ccc2c1CCCC2`, the IFI was 14.1%.

As for `COc1ccc2[nH]c(C)cc(=NN=Cc3cccc(F)c3)c2c1`, the IFI was found to be 4.51%.

On to `CCn1c(-c2nonc2N)nc2c(-c3cccc(NC(=O)Nc4ccccc4Cl)c3)ncc(OCCCN)c21`, for which the IFI came out at 18.2%.

In the case of `NC(=O)c1ccccc1OCC(=O)Nc1cccc(-c2ccc(-c3nc4cc(C(F)(F)F)ccc4[nH]3)cc2)c1`, the IFI is 1.75%.

Regarding `COc1ccccc1CNC(=O)c1cc(OC)c(OC)cc1NC(=O)c1cccs1`, the IFI came out at 1.92%.

Turning to `COCCNCc1ccc(-c2cccc(CNC3CCN(Cc4ccccc4)CC3)c2)cc1`, the IFI was determined as 7.52%.

The molecule `NS(=O)(=O)c1ccccc1Nc1nc(Nc2ccc(N3CCOCC3)cc2)nc2c1CCC2` came in with an IFI of 3.23%.

As for `N=C(NCCCCCCNC(=N)NC(=N)c1ccc(Cl)cc1)NC(=N)c1ccc(Cl)cc1`, the IFI worked out at 4.65%.

In the case of `CCOc1cc(C(=O)NC2CCN(Cc3ccccc3)CC2)ccc1-c1nc2cc(Cl)c(Cl)cc2[nH]1`, the IFI came out at 0.74%.

`COc1ccc2c(=NN=Cc3c(OC)ccc4ccccc34)cc(C)[nH]c2c1` gave an IFI of 1.48%.

With `O=C(Nc1ccccc1O)c1ccc(Oc2cccc(C(=O)Nc3ccccc3O)c2)cc1`, the IFI was 13.9%.

`CCOc1ccc(C(=O)Nc2ccc(-c3nc4ccccc4[nH]3)cc2)cc1[N+](=O)[O-]` had an IFI of 1.47%.

`Cc1cc(-c2cccc(CNC3CCN(C)CC3)c2)ccc1S(=O)(=O)NCCc1ccccn1` returned an IFI of 3.81%.

Take `CC(=O)NCC(=O)NC1=NC(=N)N(OCc2ccc3ccccc3c2)C(C)(C)N1`: the IFI is 3.68%.

`Cc1cccc2nc(-c3ccc(-c4cccc(CNCc5ccc(CN)cc5)c4)s3)[nH]c12` yielded an IFI of 11.8%.

Regarding `Cc1cc(C)cc(-n2c(C)cc(/C=C3\SC(=Nc4ccc(Cl)cc4)NC3=O)c2C)c1`, the IFI was 1.45%.

Take `Cc1cc2c(NC(=O)NC3CCN(Cc4ccc(Cl)c(Cl)c4)CC3)cccc2cn1`: the IFI came out at 3.62%.

Take `COc1cccc(-c2cnc(-c3ccncc3)nc2C2CCN(Cc3ccc(NC(C)=O)cc3)CC2)c1`: the IFI was 0%.

In turn, `Cc1ccc(Cn2nc(N3CCNCC3)ccc2=O)cc1NC(=O)Nc1ccc(-c2ccccc2)cc1` gave an IFI of 4.11%.

Consider `Cc1ccc(NC(=O)c2ccc(NCCCN(C)Cc3ccccc3)c([N+](=O)[O-])c2)cc1F`, for which the IFI was found to be 3.73%.
